Experimental data as given in article PMC4336329 (PLoS ONE, 2015).
Hit rate of the full screen: of about 310,000 compounds, about 2,200 (0.71%) showed an effect of 50% or more. The effect is printed as a negative number. The list shows a part of the results.

target: human ether-à-go-go-related gene (hERG) potassium channel (human, UniProt Q12809); assay: primary screen, population patch clamp on CHO cells stably expressing hERG
Sequence (Q12809 whole entry, looked up): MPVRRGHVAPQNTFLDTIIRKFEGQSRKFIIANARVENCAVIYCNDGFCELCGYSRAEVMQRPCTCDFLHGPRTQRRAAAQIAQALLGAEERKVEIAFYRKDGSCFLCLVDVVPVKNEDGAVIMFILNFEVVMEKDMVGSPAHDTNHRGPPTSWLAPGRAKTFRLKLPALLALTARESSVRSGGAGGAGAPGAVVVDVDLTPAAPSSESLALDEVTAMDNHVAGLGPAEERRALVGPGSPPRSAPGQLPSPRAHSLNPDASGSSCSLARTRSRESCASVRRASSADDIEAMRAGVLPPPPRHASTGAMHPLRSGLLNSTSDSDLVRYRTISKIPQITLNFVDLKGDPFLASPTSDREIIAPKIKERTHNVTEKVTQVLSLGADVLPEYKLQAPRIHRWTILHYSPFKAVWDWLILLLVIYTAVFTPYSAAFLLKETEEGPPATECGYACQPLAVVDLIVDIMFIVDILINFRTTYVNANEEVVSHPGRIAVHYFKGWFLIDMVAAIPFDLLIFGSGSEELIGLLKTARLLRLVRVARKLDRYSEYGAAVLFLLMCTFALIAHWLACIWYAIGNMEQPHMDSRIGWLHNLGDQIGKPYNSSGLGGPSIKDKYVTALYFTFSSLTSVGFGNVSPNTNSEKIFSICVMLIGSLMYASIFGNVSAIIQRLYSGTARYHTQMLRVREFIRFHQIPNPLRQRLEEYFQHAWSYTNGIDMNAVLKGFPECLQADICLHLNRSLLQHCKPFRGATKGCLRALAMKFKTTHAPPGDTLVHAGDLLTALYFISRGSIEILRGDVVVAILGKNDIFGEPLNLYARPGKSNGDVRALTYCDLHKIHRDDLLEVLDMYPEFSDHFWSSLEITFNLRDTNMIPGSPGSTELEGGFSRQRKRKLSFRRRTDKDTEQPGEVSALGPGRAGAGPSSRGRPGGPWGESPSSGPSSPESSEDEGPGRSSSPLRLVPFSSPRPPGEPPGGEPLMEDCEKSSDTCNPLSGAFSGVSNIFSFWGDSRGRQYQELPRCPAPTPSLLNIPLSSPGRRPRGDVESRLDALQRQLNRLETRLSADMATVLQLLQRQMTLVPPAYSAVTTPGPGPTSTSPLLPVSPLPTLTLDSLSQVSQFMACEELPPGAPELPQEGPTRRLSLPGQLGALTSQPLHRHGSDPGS

Row | SMILES | hERG current change (%, negative = inhibition) at 1uM
1 | Cc1nc2c(o1)CCc1ccccc1C2N1CCN(C)CC1.O=C([O-])/C=C\C(=O)[O-] (centres unmarked) | 15.1%
2 | Cc1sc2nc(CN3CCCC3)nc(N3CCN(S(=O)(=O)c4ccccc4)CC3)c2c1C | -19.4%
3 | CC(=O)c1ccc(NC(=O)c2cn(-c3ccccc3)nc2-c2ccncc2)cc1 | -5.85%
4 | COc1cccc(CNc2ccc3[nH]c(=O)[nH]c3c2)c1OCc1ccccc1 | 15.8%
5 | Cc1ccc(NP(=O)(Oc2ccccc2F)Oc2ccccc2F)cc1C | 15.4%
6 | CCS(=O)(=O)N1CCCC(C(=O)NC2CCCC2)C1 (centres unmarked) | -4.02%
7 | CCNC(=S)Nc1ccc(OCc2nc3ccccc3s2)cc1 | 18.1%
8 | CC(=O)c1c(C)[nH]c(C)c1C(C)=O | 8.49%
9 | Nc1nc(-c2c[nH]c3ccccc23)cs1 | 13.7%
10 | COc1ccc(OC)c(N/C=C2/CCCCC2=O)c1 | -3.67%
11 | CCC(=O)Nc1cc(-c2cc3ccccc3oc2=O)ccc1OC | 10.6%
12 | COc1ccc(N=C2SC(CC(=O)Nc3ccccc3)C(=O)N2Cc2ccccn2)cc1 (centres unmarked) | 5.54%
13 | O=S(=O)(Nc1ccc2cn[nH]c2c1)c1ccccc1 | 3.04%
14 | CCOC(=O)N1CCN(CC(=O)Nc2c(C(=O)OC)[nH]c3cc(C)ccc23)CC1 | -6.12%
15 | CCOC(=O)Cc1cc(=O)c2cc(C)ccc2[nH]1 | 14.1%
16 | CC(=O)NN1C(=O)/C(=C\c2ccc(O)cc2)SC1=S | 6.7%
17 | O=C(NC1(C(F)(F)F)N=C(c2ccccc2)NC1=O)c1ccccc1F (centres unmarked) | 10.6%
18 | O=C(Cn1cccc1C(=O)c1ccccc1)NCCc1ccccc1 | 18.2%
19 | COc1ccccc1/C=C1\SC(=S)N(C(C(=O)O)c2ccccc2)C1=O (centres unmarked) | -7.25%
20 | O=[N+]([O-])c1ccc(S(=O)(=O)Nc2ccc(-c3ccc(N4CCOCC4)nn3)cc2)cc1 | 3.23%
21 | COC(=O)c1c(N)sc(C(=O)N2CCOCC2)c1C | 6.5%
22 | CCc1cccc(CC)c1NC(=O)C1CC(=O)N(c2ccc3c(c2)OCCO3)C1 (centres unmarked) | 23.2%

Row | SMILES | hERG current change (%, negative = inhibition) at 1uM
23 | CCCCCn1c(=O)[nH]c2cc(C(=O)N3CCN(c4ccccc4F)CC3)ccc2c1=O | 12.2%
24 | O=C(O)/C=C\C(=O)Nc1ccc(Oc2ccccc2)cc1 | 11.6%
25 | CN(C)S(=O)(=O)c1cc(NC(=O)COC(=O)/C=C/c2ccco2)ccc1Cl | 6.25%
26 | Cc1c(NC(=O)c2ccc(S(=O)(=O)N3CCOCC3)cc2)cccc1[N+](=O)[O-] | 7.56%
27 | CCn1c(SCC(=O)NC(=O)NCc2ccco2)nnc1-c1cccs1 | 10%
28 | Cc1ccccc1NC(=O)Cc1nc(COC(=O)COc2cccc(C)c2C)cs1 | 18.1%
29 | COc1cccc(CCN2C(=O)C(=O)N([C@@H](CNCc3ccccc3)Cc3ccccc3F)C[C@@H]2C(C)(C)C)c1 | 4.08%
30 | COc1ccc(NC(=S)NC(=O)/C=C/c2ccco2)cc1 | 1.24%
31 | COc1nnc(-c2ccc(C)cc2)c2ccccc12 | 13.6%
32 | COc1ccc(NC(=O)C(=O)NCCN2CCN(C(=O)c3cccs3)CC2)cc1 | -7.77%
33 | Cc1ccc(N2C(=O)C(c3c(C)[nH]n(-c4ccccc4)c3=O)(C(F)(F)F)C3=C2CC(C)(C)CC3=O)cc1 (centres unmarked) | 17.7%
34 | Cn1c(=O)c2c(nc(NCc3ccco3)n2C)n(C)c1=O | 13.4%
35 | CCc1cc(Cn2nc(-c3ccccc3C)cc2C(=O)O)on1 | 8.83%
36 | COc1ccc(CNC(=O)c2[nH]c(C)c(C(C)=O)c2C)cc1 | 9.51%
37 | O=C(NCCCN1CCCCCC1)c1ccc2c(Cl)c3c(nc2c1)CCCC3 | -12%
38 | Cl.O=C(c1ccco1)N1CCN(Cc2nnnn2CC2CCCO2)CC1 (centres unmarked) | 5.26%
39 | Cc1ccc(CCNC(=O)C2CCCN(S(=O)(=O)c3cccs3)C2)cc1 (centres unmarked) | 6.08%
40 | Cc1c(C(c2ccc(Br)cc2)c2c(C)n(C)n(-c3ccccc3)c2=O)c(=O)n(-c2ccccc2)n1C | 15.6%
41 | O=C(NC1CCCC1)C(=O)N(c1ccccc1F)C(C(=O)NCC1CCCO1)c1cccs1 (centres unmarked) | 4.16%
42 | CCc1ccccc1NC(=O)CN1CCN(C(=O)CNC(=O)c2ccccc2F)CC1 | -3.6%
43 | COc1ccc(F)c(CN2CCC(n3nccc3NC(=O)C3CCOC3)CC2)c1 (centres unmarked) | 11.3%
44 | O=C(NNC(=O)c1ccc(F)cc1F)c1ccc(-n2cnnn2)cc1 | 8.27%

Row | SMILES | hERG current change (%, negative = inhibition) at 1uM
45 | CCOC(=O)N1CCN(C(=O)c2ccccc2Oc2ccccc2)CC1 | 7.71%
46 | CC(C)CCn1cnc2c([nH]c3cccc(Cl)c32)c1=O | 8.78%
47 | CN(CCCNC(=O)C1CCC(CNS(=O)(=O)c2ccccc2)CC1)Cc1ccccc1 (centres unmarked) | 6.77%
48 | COc1cccc(N2CCN(C(=O)CCNS(=O)(=O)c3ccc4c(c3)c(=O)n(C)c(=O)n4C)CC2)c1 | 15.8%
49 | CSc1nc(C)c2c(n1)N(c1ccc(O)cc1)CC2 | 6.49%
50 | CCOc1ccc(C(=O)CCC(=O)N2CCN(S(=O)(=O)c3cccc(F)c3)CC2)cc1 | 0.394%
51 | CCn1c(C(C)NC(=O)c2cccs2)nc2ccccc21 (centres unmarked) | 11.5%
52 | C=CCNC(=O)c1ccc2nccnc2c1 | 6.99%
53 | CS(=O)(=O)c1cccc(C(=O)NCc2ccccc2)c1 | 8.73%
54 | COc1ccc(S(=O)(=O)N2CCCCCC2)cc1 | 9.7%
55 | COc1ccc(C(=O)C2CCCN(C(=O)Cn3cncn3)C2)cc1OC (centres unmarked) | 41.6%
56 | Cc1cccc(-n2nc3c(c2NC(=O)c2ccc(Br)o2)CSC3)c1 | 10.3%
57 | CC(C)[C@H](NC(=O)N1CCn2c1nc1ccccc12)C(=O)NCc1ccco1 | 5.69%
58 | CN(C)c1nc(N)c(C(=O)N=C(N)N)nc1Cl.Cl | -2.45%
59 | Fc1ccc(N2CCN(C(c3cccs3)c3nnnn3CCc3ccccc3)CC2)cc1 (centres unmarked) | 12.4%
60 | COc1ccc(CCN2C(=NC(=O)CCC(=O)O)SC3CS(=O)(=O)CC32)cc1 (centres unmarked) | 2.94%
61 | CCc1nc2c(sc3nc4c(cc32)COC(C)(C)C4)c(=O)n1Cc1ccco1 | -3.97%
62 | Cc1ccc(CSc2nc3ccccc3c(=O)n2Cc2ccco2)cc1 | 7.54%
63 | O=C(CN1C(=O)CSC1=O)NCc1ccccc1 | 5.3%
64 | CC(CN1CCOCC1)OC(=O)c1cccc(Br)c1.Cl (centres unmarked) | -1.61%
65 | CCn1c(SCc2nc3scc(-c4ccccc4)c3c(=O)[nH]2)nnc1-c1ccc(Cl)cc1 | 5.93%
66 | Cc1cc(=O)[nH]c2c1c(C)nn2C1CCOC(C)(C)C1 (centres unmarked) | 8.96%

Row | SMILES | hERG current change (%, negative = inhibition) at 1uM
67 | Cc1cc(SCC(=O)N/N=C/c2ccc(O)c(O)c2)nc2ccccc12 | 19.1%
68 | Cc1ccccc1NC(=S)N(Cc1cccs1)C1CCCCC1 | 15%
69 | CCCN(CC(=O)Nc1ccccc1C)C(=O)c1ccc(S(=O)(=O)N2CCCCCC2)cc1 | -1.46%
70 | Cc1ccc(CNC(=O)CCSCc2ccccc2C)cc1 | 7.55%
71 | CC1(C)CC(=O)C(C(C2=C(O)CC(C)(C)CC2=O)c2ccc(O)c([N+](=O)[O-])c2)=C(O)C1 | 10.4%
72 | CCOc1ccc(C2C(C#N)=C(N)SC(N)=C2C#N)cc1OC | -1.4%
73 | Cc1cccc2cc(CN(Cc3ccccc3)C(=O)N(C)C)c(=O)[nH]c12 | 2.1%
74 | Cc1nc(SCC(=O)N(C)C2(C#N)CCCCC2)c2ccccc2n1 | 6.3%
75 | COc1ccccc1OCCn1cc(C(=O)c2ccco2)c2ccccc21 | 12.1%
76 | C[C@@H]1O[C@@H](O[C@@H]2C=C3CCC4C(CC[C@]5(C)[C@@H](c6ccc(=O)oc6)CC[C@]45O)[C@@]3(C)CC2)[C@H](O)[C@H](O)[C@H]1O (some centres unmarked) | 16.5%
77 | CCCC1(C(=O)OC)NC(c2cccc(F)c2)C2C(=O)N(CC)C(=O)C21 (centres unmarked) | 12.6%
78 | CCc1ccc(OCc2nnc(SCC(=O)NCc3ccco3)o2)cc1 | -16.9%
79 | CN(Cc1ccc(F)cc1)S(=O)(=O)c1nnc(NC(=O)c2ccccc2)s1 | 8.23%
80 | COc1ccc(NC(=O)CCNS(=O)(=O)c2ccccc2F)cc1S(N)(=O)=O | 21.2%
81 | Cc1c2cnn(CC(=O)NCCCN3CCCCC3C)c(=O)c2c(C)n1Cc1ccccc1 (centres unmarked) | 10.8%
82 | O=C(NC1CCCC1)C(c1ccncc1)N(Cc1ccccc1F)C(=O)c1csnn1 (centres unmarked) | 10.1%
83 | COc1ccc(NC(=O)CCNC(=O)N2CC(=O)Nc3ccccc32)c(OC)c1 | 20.9%
84 | Cc1ccccc1NC(=O)c1sc2nc3c(c(-c4ccco4)c2c1N)CCCC3 | 1.69%
85 | O=S1(=O)N=C(N(CCO)/N=C/C=C/c2ccccc2)c2ccccc21 | -4.99%
86 | CCCCN(C(=O)CCC(=O)Nc1cc(C)on1)C(C(=O)NC(C)(C)C)c1ccccc1Cl (centres unmarked) | 16.6%
